No constants are given. Whether binding was seen depends on the method and setting. Binding seen in cells or lysates may run through a third protein. Some entries that bind do so weakly or less than the wild type. Sequences can lack the tags named with a protein.
Experiments:
[1] = biological target: T1, His6HD-PTP_(Bro1-CC) wild-type, in vitro co-translated (human) (UniProt Q9H3S7); test: co-IP; endofin(1–84) and His6HD-PTP Bro1-CC (wild type and mutants) co-translated in vitro, then immunoprecipitated with anti-His (Figure S3)
T1 sequence: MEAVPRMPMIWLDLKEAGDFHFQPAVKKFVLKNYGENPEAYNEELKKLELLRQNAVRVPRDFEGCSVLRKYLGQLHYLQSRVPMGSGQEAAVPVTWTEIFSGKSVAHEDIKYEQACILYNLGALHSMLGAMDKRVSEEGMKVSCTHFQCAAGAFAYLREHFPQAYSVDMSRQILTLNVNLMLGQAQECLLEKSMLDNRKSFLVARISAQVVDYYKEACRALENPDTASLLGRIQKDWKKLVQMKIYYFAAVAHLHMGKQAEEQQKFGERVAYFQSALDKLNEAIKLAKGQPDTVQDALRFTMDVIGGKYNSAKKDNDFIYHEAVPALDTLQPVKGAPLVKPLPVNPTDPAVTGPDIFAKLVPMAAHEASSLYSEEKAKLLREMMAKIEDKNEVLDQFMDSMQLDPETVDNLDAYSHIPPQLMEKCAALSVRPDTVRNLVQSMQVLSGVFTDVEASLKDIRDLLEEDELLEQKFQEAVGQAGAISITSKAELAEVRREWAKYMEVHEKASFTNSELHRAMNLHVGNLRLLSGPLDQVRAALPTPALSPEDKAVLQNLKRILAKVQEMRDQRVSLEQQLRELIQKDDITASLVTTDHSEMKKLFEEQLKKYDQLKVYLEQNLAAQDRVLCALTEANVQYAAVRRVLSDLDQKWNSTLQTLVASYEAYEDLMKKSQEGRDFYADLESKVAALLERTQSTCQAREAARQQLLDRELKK

[2] = biological target: T2, His6HD-PTP_(Bro1-CC) R198M, in vitro co-translated (human) (UniProt Q9H3S7); test: as above
T2 sequence: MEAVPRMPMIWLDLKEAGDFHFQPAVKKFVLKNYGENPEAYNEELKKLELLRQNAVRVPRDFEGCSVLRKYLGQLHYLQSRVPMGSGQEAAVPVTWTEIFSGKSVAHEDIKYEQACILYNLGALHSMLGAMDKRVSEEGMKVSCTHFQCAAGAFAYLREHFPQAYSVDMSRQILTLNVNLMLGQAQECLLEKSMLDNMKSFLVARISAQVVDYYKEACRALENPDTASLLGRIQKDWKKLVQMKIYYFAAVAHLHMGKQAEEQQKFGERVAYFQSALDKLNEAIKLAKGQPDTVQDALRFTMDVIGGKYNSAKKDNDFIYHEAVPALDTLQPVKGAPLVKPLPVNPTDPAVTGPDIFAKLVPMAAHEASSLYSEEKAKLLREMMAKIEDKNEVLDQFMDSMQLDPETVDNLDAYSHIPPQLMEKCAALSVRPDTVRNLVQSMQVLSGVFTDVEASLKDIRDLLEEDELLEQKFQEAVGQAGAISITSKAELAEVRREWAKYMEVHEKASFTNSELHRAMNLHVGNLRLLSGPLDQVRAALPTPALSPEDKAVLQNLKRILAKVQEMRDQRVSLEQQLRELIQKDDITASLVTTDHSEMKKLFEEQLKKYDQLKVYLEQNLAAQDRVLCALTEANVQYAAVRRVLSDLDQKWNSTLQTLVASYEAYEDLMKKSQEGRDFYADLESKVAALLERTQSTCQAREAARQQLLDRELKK

[3] = biological target: T3, His6HD-PTP_(Bro1-CC) T145K, in vitro co-translated (human) (UniProt Q9H3S7); test: as above
T3 sequence: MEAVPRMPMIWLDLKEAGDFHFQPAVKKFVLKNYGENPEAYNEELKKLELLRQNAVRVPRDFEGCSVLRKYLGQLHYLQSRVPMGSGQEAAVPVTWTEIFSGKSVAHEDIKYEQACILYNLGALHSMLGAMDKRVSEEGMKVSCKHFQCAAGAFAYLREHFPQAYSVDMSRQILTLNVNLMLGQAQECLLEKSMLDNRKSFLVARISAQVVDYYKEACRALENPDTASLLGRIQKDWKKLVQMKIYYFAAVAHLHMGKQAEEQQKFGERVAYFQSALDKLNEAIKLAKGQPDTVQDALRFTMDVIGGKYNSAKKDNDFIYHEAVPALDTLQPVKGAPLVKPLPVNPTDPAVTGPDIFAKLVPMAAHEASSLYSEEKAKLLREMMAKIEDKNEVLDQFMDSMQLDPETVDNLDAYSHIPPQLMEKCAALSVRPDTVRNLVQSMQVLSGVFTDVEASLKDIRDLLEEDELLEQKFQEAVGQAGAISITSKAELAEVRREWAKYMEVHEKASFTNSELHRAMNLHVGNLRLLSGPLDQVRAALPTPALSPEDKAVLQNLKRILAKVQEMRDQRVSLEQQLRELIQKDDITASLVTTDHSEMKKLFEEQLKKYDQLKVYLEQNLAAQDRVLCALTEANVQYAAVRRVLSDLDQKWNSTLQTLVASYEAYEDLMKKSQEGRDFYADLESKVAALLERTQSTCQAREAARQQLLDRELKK

[4] = biological target: T4, His6-HD-PTP_(Bro1-CC) (1-714), bacterially expressed (human) (UniProt Q9H3S7); test: co-IP; 20 μl in vitro translated 35S-endofin(1-84)-strep incubated with 5 μg bacterially expressed His6-HD-PTP Bro1-CC in IP2 buffer (20 mM Hepes pH 7.4, 100 mM NaCl, 1 mM MgCl2, 1% Triton X-100), 4°C; anti-His antibody and protein A-sepharose; phosphorimaging; only the target purified
T4 sequence: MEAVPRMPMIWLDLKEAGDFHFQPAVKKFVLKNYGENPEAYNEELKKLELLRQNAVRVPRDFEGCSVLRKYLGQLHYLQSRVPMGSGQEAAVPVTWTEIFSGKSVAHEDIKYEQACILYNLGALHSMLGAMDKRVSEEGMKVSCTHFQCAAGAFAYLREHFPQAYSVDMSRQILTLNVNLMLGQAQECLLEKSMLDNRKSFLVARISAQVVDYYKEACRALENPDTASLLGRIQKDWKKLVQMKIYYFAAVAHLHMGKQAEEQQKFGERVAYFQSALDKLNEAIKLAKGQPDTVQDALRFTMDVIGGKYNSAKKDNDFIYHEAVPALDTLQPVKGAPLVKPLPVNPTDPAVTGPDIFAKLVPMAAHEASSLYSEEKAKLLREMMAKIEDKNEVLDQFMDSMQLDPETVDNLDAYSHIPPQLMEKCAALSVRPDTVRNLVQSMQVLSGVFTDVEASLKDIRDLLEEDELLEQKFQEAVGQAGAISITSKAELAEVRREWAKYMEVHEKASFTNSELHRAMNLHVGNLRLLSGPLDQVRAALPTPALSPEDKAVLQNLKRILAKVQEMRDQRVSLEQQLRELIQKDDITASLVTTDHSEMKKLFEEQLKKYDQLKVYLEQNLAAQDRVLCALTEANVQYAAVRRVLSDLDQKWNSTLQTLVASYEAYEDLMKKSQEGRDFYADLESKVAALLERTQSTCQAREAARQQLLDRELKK

B1: endofin_(1–84)-strep, in vitro translated (domain or fragment, UniProt Q7Z3T8 1-84)
chain: MDSYFKAAVSDLDKLLDDFEQNPDEQDYLQDVQNAYDSNHCSVSSELASSQRTSLLPKDQECVNSCASSETSYGTNESSLNEKT
modifications: 35S-methionine
[1]
  binding: binds
[2]
  binding: binds
[3]
  binding: no binding
[4]
  binding: binds

— PMC5501724, “Structural Basis for Specific Interaction of TGFβ Signaling Regulators SARA/Endofin with HD-PTP” (Structure(London, England:1993), 2017)
